Test results taken from the supplement of paper PMC7125110.
± gives the standard error. Variants at the background level are over-represented here.

B1: glmS ribozyme (parent)
chain: AUAAAAGCGCCAGAACUACAGAAAUGUAGUUGACGAGGAGGAGGUUUAUCGAAUUUUCGGCGGAUGCCUCCAAA

Assays:
Settings in all cases: with glucosamine-6-phosphate
glucosamine-6-phosphate [1] = variants of: B1; assay: self-cleavage kobs at 40 uM GlcN6P; higher = faster cleavage; RNA array
In short: (§1)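 Barcoded ribozyme variants, transcribed in situ by E. coli RNA polymerase on sequenced MiSeq chips, were followed via a hybridised Cy3 probe at 37 °C. Glucosamine-6-phosphate ranged from 40 μM to 10 mM in HEPES/KCl/Mg(OAc)2 buffer. kobs came from decay fits to per-tile medians, and kcat and KM from weighted Michaelis–Menten fits.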

glucosamine-6-phosphate [2] = variants of: B1; assay: self-cleavage kobs at 640 uM GlcN6P; higher = faster cleavage; RNA array
In short: as §1

glucosamine-6-phosphate [3] = variants of: B1; assay: self-cleavage kobs at 160 uM GlcN6P; higher = faster cleavage; RNA array
In short: as §1

glucosamine-6-phosphate [4] = variants of: B1; assay: self-cleavage kobs at 2500 uM GlcN6P; higher = faster cleavage; RNA array
In short: as §1

glucosamine-6-phosphate [5] = variants of: B1; assay: self-cleavage kobs at 10000 uM GlcN6P; higher = faster cleavage; RNA array
In short: as §1

Variant	self-cleavage kobs at 40 uM GlcN6P (glucosamine-6-phosphate [1])	self-cleavage kobs at 640 uM GlcN6P (glucosamine-6-phosphate [2])	self-cleavage kobs at 160 uM GlcN6P (glucosamine-6-phosphate [3])	self-cleavage kobs at 2500 uM GlcN6P (glucosamine-6-phosphate [4])	self-cleavage kobs at 10000 uM GlcN6P (glucosamine-6-phosphate [5])
C10G G63C	< 1e-05 s⁻¹	< 1e-05 s⁻¹	< 1e-05 s⁻¹	< 1e-05 s⁻¹	
C11G U46G	< 1e-05 s⁻¹	< 1e-05 s⁻¹	< 1e-05 s⁻¹	< 1e-05 s⁻¹	
C10G G35C G37A G40C G41C G66C	< 1e-05 s⁻¹				
G9A G37U U46C U56A G60C	< 1e-05 s⁻¹				< 1e-05 s⁻¹
C8U C16A	< 1e-05 s⁻¹				
C8U U54G	< 1e-05 s⁻¹	< 1e-05 s⁻¹		< 1e-05 s⁻¹	< 1e-05 s⁻¹
G9U C11U A42G	< 1e-05 s⁻¹	< 1e-05 s⁻¹		< 1e-05 s⁻¹	< 1e-05 s⁻¹
C11G G13A U31A C68U	< 1e-05 s⁻¹				< 1e-05 s⁻¹
G9U U65G	< 1e-05 s⁻¹	< 1e-05 s⁻¹	< 1e-05 s⁻¹	< 1e-05 s⁻¹	< 1e-05 s⁻¹
C10U G37C A42C	< 1e-05 s⁻¹			< 1e-05 s⁻¹	< 1e-05 s⁻¹
C10G A53U	< 1e-05 s⁻¹	< 1e-05 s⁻¹	< 1e-05 s⁻¹		
C10A G44U U55A	< 1e-05 s⁻¹	< 1e-05 s⁻¹	< 1e-05 s⁻¹	< 1e-05 s⁻¹	< 1e-05 s⁻¹
C10A U31A	< 1e-05 s⁻¹	< 1e-05 s⁻¹	< 1e-05 s⁻¹		
G9A C11U C34U	< 1e-05 s⁻¹				
G9C A15G A18C G35U G38A G51A U65G	< 1e-05 s⁻¹	< 1e-05 s⁻¹			
C10G A42C U47A G59U	< 1e-05 s⁻¹				
G9A G38A	< 1e-05 s⁻¹				< 1e-05 s⁻¹
C8U G44U	< 1e-05 s⁻¹	< 1e-05 s⁻¹	< 1e-05 s⁻¹	< 1e-05 s⁻¹	< 1e-05 s⁻¹
C8U G44A	< 1e-05 s⁻¹	< 1e-05 s⁻¹	< 1e-05 s⁻¹	< 1e-05 s⁻¹	
C10A G44U	< 1e-05 s⁻¹	< 1e-05 s⁻¹	< 1e-05 s⁻¹	< 1e-05 s⁻¹	< 1e-05 s⁻¹
C11A U45C	< 1e-05 s⁻¹	< 1e-05 s⁻¹			
C8U A53U G60U	< 1e-05 s⁻¹				
G9A G59C	< 1e-05 s⁻¹		< 1e-05 s⁻¹	< 1e-05 s⁻¹	< 1e-05 s⁻¹
C10G G60U C68A	< 1e-05 s⁻¹				

Variant	self-cleavage kobs at 40 uM GlcN6P (glucosamine-6-phosphate [1])	self-cleavage kobs at 640 uM GlcN6P (glucosamine-6-phosphate [2])	self-cleavage kobs at 160 uM GlcN6P (glucosamine-6-phosphate [3])	self-cleavage kobs at 2500 uM GlcN6P (glucosamine-6-phosphate [4])	self-cleavage kobs at 10000 uM GlcN6P (glucosamine-6-phosphate [5])
C11A A14G G29A G35A A53G	< 1e-05 s⁻¹				
C8U U55G	< 1e-05 s⁻¹	< 1e-05 s⁻¹		< 1e-05 s⁻¹	
C11G U54C	< 1e-05 s⁻¹				
G9A G41U	< 1e-05 s⁻¹	< 1e-05 s⁻¹	< 1e-05 s⁻¹	< 1e-05 s⁻¹	
C10G U46G	< 1e-05 s⁻¹	< 1e-05 s⁻¹	< 1e-05 s⁻¹		
G9A C58U G60U	< 1e-05 s⁻¹				
G9C C10G G43U	< 1e-05 s⁻¹	< 1e-05 s⁻¹	< 1e-05 s⁻¹	< 1e-05 s⁻¹	< 1e-05 s⁻¹
C11G A53U	< 1e-05 s⁻¹				
C10G U30G	< 1e-05 s⁻¹	< 1e-05 s⁻¹	< 1e-05 s⁻¹		
G9C C70U	< 1e-05 s⁻¹	< 1e-05 s⁻¹	< 1e-05 s⁻¹	< 1e-05 s⁻¹	< 1e-05 s⁻¹
G9U A14C G32C A52C U65A	< 1e-05 s⁻¹			< 1e-05 s⁻¹	< 1e-05 s⁻¹
G9A A14C C34A G60A	< 1e-05 s⁻¹				< 1e-05 s⁻¹
C10A G43A A48G	< 1e-05 s⁻¹	< 1e-05 s⁻¹		< 1e-05 s⁻¹	
C10A C61A C67G	4.33e-05 ± 1.9e-05 s⁻¹				
C10G G44A G51U C58U A64U	< 1e-05 s⁻¹	< 1e-05 s⁻¹		< 1e-05 s⁻¹	< 1e-05 s⁻¹
G9U G32U	< 1e-05 s⁻¹	< 1e-05 s⁻¹	< 1e-05 s⁻¹	< 1e-05 s⁻¹	< 1e-05 s⁻¹
G9A C10A C61A	< 1e-05 s⁻¹				
C10G U55G	< 1e-05 s⁻¹				
G9A C10U G38U U45A	< 1e-05 s⁻¹				
G9A G29A	< 1e-05 s⁻¹		< 1e-05 s⁻¹	< 1e-05 s⁻¹	< 1e-05 s⁻¹
G9U C11A	< 1e-05 s⁻¹		< 1e-05 s⁻¹		
C11A G29U G44U U45C C68G	< 1e-05 s⁻¹	< 1e-05 s⁻¹		< 1e-05 s⁻¹	
G9C C11U A52C	< 1e-05 s⁻¹				
C11G A12G U46A C70U	< 1e-05 s⁻¹				< 1e-05 s⁻¹

Variant	self-cleavage kobs at 40 uM GlcN6P (glucosamine-6-phosphate [1])	self-cleavage kobs at 640 uM GlcN6P (glucosamine-6-phosphate [2])	self-cleavage kobs at 160 uM GlcN6P (glucosamine-6-phosphate [3])	self-cleavage kobs at 2500 uM GlcN6P (glucosamine-6-phosphate [4])	self-cleavage kobs at 10000 uM GlcN6P (glucosamine-6-phosphate [5])
C10G U69C	< 1e-05 s⁻¹	< 1e-05 s⁻¹			< 1e-05 s⁻¹
G9U C67G	< 1e-05 s⁻¹		< 1e-05 s⁻¹	< 1e-05 s⁻¹	
G9A G38C A42U C68G	< 1e-05 s⁻¹	< 1e-05 s⁻¹			
C8U C11G C67U	< 1e-05 s⁻¹				
C11G U45C	< 1e-05 s⁻¹	< 1e-05 s⁻¹	< 1e-05 s⁻¹	< 1e-05 s⁻¹	< 1e-05 s⁻¹
C11A G40U A53U G59U U69G	< 1e-05 s⁻¹				
C11A A53C	< 1e-05 s⁻¹		< 1e-05 s⁻¹		
C8U G66A	< 1e-05 s⁻¹	< 1e-05 s⁻¹	< 1e-05 s⁻¹		
G9U G35A	< 1e-05 s⁻¹	< 1e-05 s⁻¹	< 1e-05 s⁻¹	< 1e-05 s⁻¹	< 1e-05 s⁻¹
C11G A64C	< 1e-05 s⁻¹		< 1e-05 s⁻¹		< 1e-05 s⁻¹
C11G A64G	< 1e-05 s⁻¹		< 1e-05 s⁻¹	< 1e-05 s⁻¹	
G9A G62U	< 1e-05 s⁻¹		< 1e-05 s⁻¹	< 1e-05 s⁻¹	
G9U U55C	< 1e-05 s⁻¹	< 1e-05 s⁻¹			< 1e-05 s⁻¹
C10U G40U U49A	< 1e-05 s⁻¹				
G9A G43U	< 1e-05 s⁻¹	< 1e-05 s⁻¹	< 1e-05 s⁻¹	< 1e-05 s⁻¹	
C11U A15C G62C	< 1e-05 s⁻¹				
C10U U46C U56C	< 1e-05 s⁻¹	< 1e-05 s⁻¹	< 1e-05 s⁻¹	< 1e-05 s⁻¹	
C11G A64U C67A	< 1e-05 s⁻¹				< 1e-05 s⁻¹
G9U C58U G66A	< 1e-05 s⁻¹				
C10A A39U U49C	< 1e-05 s⁻¹				
G9A G32U A48U	< 1e-05 s⁻¹				< 1e-05 s⁻¹
G9U G38A U56C G63U	< 1e-05 s⁻¹				
C10U A64G	< 1e-05 s⁻¹			3.75e-05 ± 5.1e-06 s⁻¹	3.21e-05 ± 5.8e-06 s⁻¹
G9C A15U G43A U46A C67G	< 1e-05 s⁻¹				< 1e-05 s⁻¹

Variant	self-cleavage kobs at 40 uM GlcN6P (glucosamine-6-phosphate [1])	self-cleavage kobs at 640 uM GlcN6P (glucosamine-6-phosphate [2])	self-cleavage kobs at 160 uM GlcN6P (glucosamine-6-phosphate [3])	self-cleavage kobs at 2500 uM GlcN6P (glucosamine-6-phosphate [4])	self-cleavage kobs at 10000 uM GlcN6P (glucosamine-6-phosphate [5])
G9A G37U G41C U54C	< 1e-05 s⁻¹				
G9A U65A	< 1e-05 s⁻¹			< 1e-05 s⁻¹	
G9A G32U	< 1e-05 s⁻¹	< 1e-05 s⁻¹	< 1e-05 s⁻¹	< 1e-05 s⁻¹	< 1e-05 s⁻¹
C10G G51U	< 1e-05 s⁻¹		< 1e-05 s⁻¹	< 1e-05 s⁻¹	< 1e-05 s⁻¹
G9C C67U	< 1e-05 s⁻¹	< 1e-05 s⁻¹	< 1e-05 s⁻¹	< 1e-05 s⁻¹	< 1e-05 s⁻¹
G9C C67A	< 1e-05 s⁻¹	< 1e-05 s⁻¹	< 1e-05 s⁻¹	< 1e-05 s⁻¹	< 1e-05 s⁻¹
C10G A33G A48U	< 1e-05 s⁻¹				< 1e-05 s⁻¹
C10U C50U	< 1e-05 s⁻¹				< 1e-05 s⁻¹
C10G G29C A33G G63C	< 1e-05 s⁻¹			< 1e-05 s⁻¹	< 1e-05 s⁻¹
G9C U45G	< 1e-05 s⁻¹	< 1e-05 s⁻¹	< 1e-05 s⁻¹		
C10U A42U G43A	< 1e-05 s⁻¹				
G9C G38A	< 1e-05 s⁻¹	< 1e-05 s⁻¹	< 1e-05 s⁻¹		
G9A A64G	< 1e-05 s⁻¹	< 1e-05 s⁻¹		< 1e-05 s⁻¹	
G9C C16U U47A	< 1e-05 s⁻¹				< 1e-05 s⁻¹
C11U A14G U31G G43U U69G	< 1e-05 s⁻¹	< 1e-05 s⁻¹			
C10U G43A C61A	< 1e-05 s⁻¹				< 1e-05 s⁻¹
G9U U69A	< 1e-05 s⁻¹	< 1e-05 s⁻¹	< 1e-05 s⁻¹	< 1e-05 s⁻¹	< 1e-05 s⁻¹
C10U G32U G40C	< 1e-05 s⁻¹				
C11G U55C	< 1e-05 s⁻¹	< 1e-05 s⁻¹	< 1e-05 s⁻¹		
G9C C68U	< 1e-05 s⁻¹	< 1e-05 s⁻¹		< 1e-05 s⁻¹	< 1e-05 s⁻¹
C10U A12G G32U A36U C70U	< 1e-05 s⁻¹				
C10U G13C A36C	< 1e-05 s⁻¹				
C10G G44U C68U C70U	< 1e-05 s⁻¹				< 1e-05 s⁻¹
G9C U31C U49G C67G	< 1e-05 s⁻¹	< 1e-05 s⁻¹			< 1e-05 s⁻¹
